Source: PubChem BioAssay AID720709 (National Center for Advancing Translational Sciences (NCATS), 2013)
The campaign covered roughly 360,000 compounds. About 520 (0.14%) were called active. This list was built around the results that the source calls inconclusive (neither active nor inactive); the mix of calls is not that of the screen. Calls come from the whole dose curve; as a rule, active = well fitted inhibition curve with a large enough effect; inconclusive = small, poorly fitted or top-dose-only effect; inactive = no such curve, though single readings can be large or run the other way. Potencies of inconclusive entries are left out as doubtful fits.

target: Rap guanine nucleotide exchange factor 3 (Homo sapiens) (UniProt O95398); test: qHTS for Antagonist of cAMP-regulated guanine nucleotide exchange factor 3 (EPAC1): primary screen; conditions: EPAC1 GEF assay, Rap1b-BODIPY-GDP exchange fluorescence; activity change, negative = inhibition: at 115 µM (top of the series); note: nearly all actives have a fitted effect of over 50% in size;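 for activity change, negative = inhibition: plate controls were vehicle for no effect and positive control for full effect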
Potency is the fitted concentration of half-maximal effect; tags give direction and shape of the fitted curve.

Sequence of UniProt O95398 (O95398 whole entry, looked up): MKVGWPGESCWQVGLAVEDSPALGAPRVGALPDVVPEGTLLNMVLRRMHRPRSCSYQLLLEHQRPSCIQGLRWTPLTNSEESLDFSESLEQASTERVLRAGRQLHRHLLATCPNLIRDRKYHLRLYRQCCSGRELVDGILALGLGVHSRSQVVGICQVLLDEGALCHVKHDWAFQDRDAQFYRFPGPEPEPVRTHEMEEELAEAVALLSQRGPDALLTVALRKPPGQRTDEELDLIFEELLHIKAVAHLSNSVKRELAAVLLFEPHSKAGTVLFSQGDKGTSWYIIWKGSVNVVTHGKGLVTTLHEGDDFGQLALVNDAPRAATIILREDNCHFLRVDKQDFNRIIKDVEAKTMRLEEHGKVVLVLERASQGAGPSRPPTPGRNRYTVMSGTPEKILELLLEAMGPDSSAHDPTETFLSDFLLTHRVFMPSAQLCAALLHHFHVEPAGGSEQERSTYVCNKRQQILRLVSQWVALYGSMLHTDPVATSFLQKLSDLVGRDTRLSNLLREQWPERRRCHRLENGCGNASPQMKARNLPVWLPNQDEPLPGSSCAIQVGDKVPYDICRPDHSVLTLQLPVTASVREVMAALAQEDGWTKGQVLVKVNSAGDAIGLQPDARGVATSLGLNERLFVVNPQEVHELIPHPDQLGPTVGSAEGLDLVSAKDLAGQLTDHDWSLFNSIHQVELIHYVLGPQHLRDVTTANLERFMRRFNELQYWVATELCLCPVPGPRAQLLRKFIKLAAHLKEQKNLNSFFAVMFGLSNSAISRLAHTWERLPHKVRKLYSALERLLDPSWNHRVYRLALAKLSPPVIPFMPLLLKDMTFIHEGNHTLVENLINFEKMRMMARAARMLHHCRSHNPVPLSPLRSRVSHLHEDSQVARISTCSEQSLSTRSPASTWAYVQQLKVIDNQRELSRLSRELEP

SMILES	Potency	activity change, negative = inhibition
COc1ccc(C(=O)NC2CC2)cc1OC1CCN(Cc2ccc(F)cc2Cl)CC1	inactive	
Cc1cc(NC(=O)CSc2nc3c(c(=O)n2-c2ccccc2)SC(C)C3)no1 (configuration not stated)		inconclusive: -8.36% [inhibitor]
O=C1NN(c2cccc(Br)c2)C(=O)/C1=C\c1ccccc1	inconclusive [inhibitor, partial curve]	
O=S(=O)(c1ccc(Cl)c(C(F)(F)F)c1)N1CCN(CC(O)COc2ccccc2F)CC1 (configuration not stated)	inconclusive [inhibitor, full curve]	
CCCCNc1c(-c2ccc(SC(C)CC)cc2)nc2cnccn12 (configuration not stated)	inconclusive [inhibitor, full curve, poor fit]	
COc1cc(OC)cc(C(=O)N[C@H](C(=O)NCc2ccco2)C(C)C)c1	inconclusive [inhibitor, partial curve]	
CC(NC(=O)/C(C#N)=C/c1ccc([N+](=O)[O-])o1)c1ccccc1 (configuration not stated)	inconclusive [inhibitor, partial curve]	
Brc1ccc(/C=N/Nc2nc3ccccc3o2)cc1	inconclusive [inhibitor, single point]	
O=c1c2c(nc3n1CCCCC3)sc1c(O)c(Br)ccc12	inconclusive [inhibitor, single point]	
COCCNC(=O)C1(C)CCCN(C(=O)c2ccc3c(c2)CCO3)C1 (configuration not stated)	inactive	
O=C(COC(=O)c1ccc([N+](=O)[O-])s1)NCc1ccccc1	inconclusive [inhibitor, single point]	
S=c1[nH]nc(COc2ccc(Cl)cc2)n1-c1ccc(Cl)cc1	inconclusive [inhibitor, single point]	
C/C(=N\NC(=S)Nc1cc(S(=O)(=O)N2CCOCC2)ccc1Cl)c1ccc(N2CCOCC2)cc1	inactive	
COC(=O)[C@]1(C)N[C@H](CN(C)S(=O)(=O)c2ccc(F)cc2)[C@@H]2C(=O)N(C)C(=O)[C@@H]21	inconclusive [inhibitor, single point]	
CC(C)(C)c1ccc(S(=O)(=O)NCC(=O)N2CCCC2)cc1	inactive	
C/C=C(\C)C(=O)Nc1cccc(C2=NOC3(C2)C[C@@H](C(N)=O)N(C(=O)c2ccccc2C(=O)c2ccccc2)C3)c1 (some centres not stated)	inconclusive [inhibitor, single point]	
CC1(C(=O)NS(=O)(=O)c2cccc(Cl)c2)CCN1C(=O)C1(c2ccc(Cl)cc2)CC1 (configuration not stated)	inconclusive [inhibitor, full curve, poor fit]	
NC(=O)NNC(=S)Nc1cccc2ccccc12	inconclusive [inhibitor, single point]	
CC(C)(C)OC(=O)NCCCCCc1nnc(SCC(=O)Nc2cccc(Cl)c2)o1	inactive	
CC(C)(C)c1ccc(CC(=O)N2CCC2(C)C(=O)NCc2cccc3ccccc23)cc1 (configuration not stated)	inactive	
Cc1ccc(C(=O)N(CCCN(C)C)c2nc3ccc(Cl)cc3s2)cc1C	inconclusive [inhibitor, full curve, poor fit]	

SMILES	Potency	activity change, negative = inhibition
CC(C)C(NC(=O)c1ccccc1NC(=O)c1ccccc1)C(=O)NNC(=O)c1ccncc1 (configuration not stated)	inconclusive [inhibitor, single point]	
CNC(=O)C1C2C=CC3(O2)C1C(=O)N(C1CC1)C3C(=O)NCc1ccc(OC)cc1 (configuration not stated)	inconclusive [inhibitor, single point]	
COc1ccc(-c2c(C#N)c(N)nc3sc(C(=O)c4ccccc4)c(N)c23)cc1	inactive	
COc1ccccc1NC(=O)c1ccccc1NC(=O)c1ccccc1C(=O)O	inconclusive [inhibitor, full curve, poor fit]	
COc1ccc([N+](=O)[O-])cc1N(CC(=O)N1CCCC1)S(C)(=O)=O	inconclusive [inhibitor, full curve, poor fit]	
O=C1NCCN/C1=C\C(=O)c1cccc(Br)c1	inactive	
Nc1cccc(N=[N+]([O-])c2cccc(N)c2)c1	inactive	
CCN(CC)c1c([N+](=O)[O-])c(=O)n(C)c2ccccc12	inactive	
O=C(COc1ccccc1/C=C\c1nc(O)c([N+](=O)[O-])c(=O)[nH]1)Nc1ccccc1	inconclusive [inhibitor, full curve, poor fit]	
Cc1ccc(C(=O)N2CCN3C(=O)c4ccccc4C23c2ccc(Cl)cc2)cc1 (configuration not stated)	inactive	
O=C1C=CC(=O)N1c1cccc(-c2ccccc2)c1	inconclusive [inhibitor, partial curve, poor fit]	
CCCc1nc2ccccc2c(C(=O)OCC(=O)Nc2cccc(S(=O)(=O)N3CCOCC3)c2)c1CC	inconclusive [inhibitor, partial curve]	
Cc1c(CCC(=O)NCCCCCC(=O)O)c(=O)oc2c(C)c3oc4c(c3cc12)CCCC4	inconclusive [inhibitor, single point]	
COc1ccc(-c2cn[nH]c2-c2ccc(OC)cc2O)cc1	inconclusive [inhibitor, single point]	
Cc1cc(C)n(Cc2ccc(C(=O)N/N=C/c3ccc(-c4ccc([N+](=O)[O-])cc4)o3)o2)n1	inconclusive [inhibitor, full curve]	
Nc1nc(Nc2ccccc2)nc(N2CCOCC2)c1[N+](=O)[O-]	inconclusive [inhibitor, full curve, poor fit]	
Cc1cccc(/C=C/c2onc(C)c2S(=O)(=O)N2CCC(C(=O)NC(C)(C)C)CC2)c1	inconclusive [inhibitor, partial curve]	
CC(C)n1cc(CN2CCCC(C(=O)Nc3ccccc3Oc3cccnc3)C2)cn1 (configuration not stated)	inconclusive [inhibitor, partial curve]	
Cc1cc(OCC(=O)N2CCN(c3ccc(F)cc3)CC2)c2c(C)cc(=O)oc2c1	inactive	
O=S(=O)(Nc1ccccc1)c1ccc(-c2csnn2)cc1	inactive	
COc1ccc2c(c1)OC[C@H]1[C@H]2N2C(=O)c3cc(C)ccc3NC(=O)[C@@]2(C)[C@H]1c1ccccc1	inconclusive [inhibitor, full curve, poor fit]	
